In all, about 390,000 compounds went through this assay and about 1,400 (0.36%) were called active. The shares of active, inactive and inconclusive entries below differ from those in the screen. Calls come from the whole dose curve; as a rule, active = well fitted inhibition curve with a large enough effect; inconclusive = small, poorly fitted or top-dose-only effect; inactive = no such curve, though single readings can be large or run the other way. Potencies beside an inconclusive call are fits to weak or partial responses and may not hold up.
Each molecule was assayed against Flap endonuclease 1 (Homo sapiens) (UniProt P39748) (assay: qHTS Assay for the Inhibitors of Human Flap endonuclease 1 (FEN1).). Details: Recombinant FEN1 flap cleavage, fluorescence, 15 min; series mostly up to 114 µM.
UniProt P39748, sequence (P39748 whole entry, looked up): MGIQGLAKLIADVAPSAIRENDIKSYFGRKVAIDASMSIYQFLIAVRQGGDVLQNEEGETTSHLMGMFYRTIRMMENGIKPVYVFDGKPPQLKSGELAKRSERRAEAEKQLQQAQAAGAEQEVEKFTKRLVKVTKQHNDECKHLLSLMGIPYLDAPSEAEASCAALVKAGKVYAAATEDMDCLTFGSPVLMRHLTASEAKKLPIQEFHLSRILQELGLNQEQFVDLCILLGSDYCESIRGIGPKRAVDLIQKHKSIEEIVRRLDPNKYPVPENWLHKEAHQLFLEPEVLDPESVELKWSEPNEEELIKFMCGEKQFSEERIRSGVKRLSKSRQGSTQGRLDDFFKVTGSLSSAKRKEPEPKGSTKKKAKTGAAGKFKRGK
How it was run: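 Recombinant FEN1 (10 nM) was preincubated with pin-transferred compounds for 15 min at room temperature, then flap DNA substrate (50 nM final) was added. Plates were read at 0 and 15 min, and normalized concentration–response data were fitted to a four-parameter Hill equation.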
With Cc1ccc(NC(=O)CSc2nc(-c3ccc(C(C)(C)C)cc3)nc3cc(=O)[nH]n23)cc1C the Potency was “inactive”. Cc1cccc(C)c1NC(=O)/C(C#N)=C/c1ccc(-c2ccc(C(=O)O)cc2)o1 was tested, and the Potency was “inactive”. Cc1cc(N)c2cc(NC(=O)/C=C/c3ccccc3Cl)ccc2n1 was tested, and the Potency was inconclusive: 56.2 µM [inhibitor, partial curve, poor fit]. With COCCCNC(=O)c1ccc(Cn2c(=O)c3ccccc3n(Cc3ccccc3C)c2=O)cc1 the Potency was inconclusive: 79.4 µM [inhibitor, partial curve, poor fit]. For COc1ccc(NS(=O)(=O)c2cc(N)ccc2N2CCCCC2)cc1, the Potency was inconclusive: 79.4 µM [inhibitor, partial curve, poor fit]. CC(=O)Nc1c(O)c2cccc3c2n(c1=O)CCC3 was tested, and the Potency was inconclusive: 15.8 µM [inhibitor, partial curve, poor fit]. COc1cc(C(=O)NCCCNc2ccc([N+](=O)[O-])cc2)cc(OC)c1OC was tested, and the Potency was “inactive”. For CCCOc1cccc(C2C(C(=O)c3cccs3)=C(O)C(=O)N2Cc2cccnc2)c1 (centres undefined), the Potency was inconclusive: 89.1 µM [inhibitor, partial curve, poor fit]. For COc1ccc(OCC(=O)N(Cc2cccc(OC)c2)C2CCS(=O)(=O)C2)cc1 (centres undefined), the Potency was “inactive”. C[n+]1c2n(c3ccccc31)N=C(c1ccc(-c3ccccc3)cc1)CS2 was tested, and the Potency was inconclusive: 56.2 µM [inhibitor, partial curve, poor fit]. With CCOC(=O)C1=C(O)/C(=C/c2ccc(-c3ccccc3C(=O)O)o2)SC1=Nc1ccc(C)cc1 the Potency was active: 39.8 µM. With O=C1C(=O)C(c2ccc(O)cc2O)Oc2cc(O)cc(O)c21 (centres undefined) the Potency was active: 20 µM. For Cc1sc2ncnc(SCC(=O)Nc3ccc(CN4CCCC4)cc3)c2c1C, the Potency was inconclusive: 89.1 µM [inhibitor, partial curve, poor fit]. O=C(COc1ccc([N+](=O)[O-])cc1Cl)Nc1ccc2[nH]c(=O)[nH]c2c1 was tested, and the Potency was inconclusive: 22.4 µM [inhibitor, partial curve, poor fit]. In the case of CC1=C(C(=O)Nc2cccnc2)C(c2ccccc2)n2nc(SCc3ccccc3)nc2N1 (centres undefined), the Potency is reported as “inactive”. For CSc1ccc(OC2CCCCC2NS(=O)(=O)c2ccccc2)cc1 (centres undefined), the Potency was inconclusive: 44.7 µM [inhibitor, partial curve, poor fit]. OCC1(Cc2cccc(C(F)(F)F)c2)CCN(Cc2cc3ccccc3o2)CC1 was tested, and the Potency was inconclusive: 79.4 µM [inhibitor, partial curve, poor fit]. With C=CCNc1nc(NC2CCN(C)CC2)c2cc(OC)c(OC)cc2n1 the Potency was inconclusive: 35.5 µM [inhibitor, partial curve]. For O=c1c(O)c(-c2ccc(O)c(O)c2)oc2cc(O)ccc12, the Potency was inconclusive: 7.08 µM [inhibitor, full curve]. With O=C(CSc1ccsc1[N+](=O)[O-])Nc1cc(F)ccc1F the Potency was inconclusive: 3.98 µM [inhibitor, partial curve, poor fit]. For CC(=O)NC(CC(=O)NNC(=O)c1cc2ccccc2cc1O)c1ccccc1 (centres undefined), the Potency was “inactive”. In the case of N#C/C(=C\c1ccc(O)cc1)c1nc2ccccc2o1, the Potency is reported as inconclusive: 56.2 µM [inhibitor, partial curve, poor fit]. For COc1ccc2c(c1)O[C@@H](c1cccc(C(F)(F)F)c1)[C@H](OC(=O)Nc1ccc(OC(F)F)cc1)C2=O, the Potency was inconclusive: 35.5 µM [inhibitor, partial curve, poor fit]. Cc1cccc(N2CCN(CC(=O)Nc3ccccc3[N+](=O)[O-])CC2)c1C was tested, and the Potency was “inactive”. In the case of COc1ccc(-c2nc3cnccn3c2Nc2ccc(C)cc2)cc1, the Potency is reported as inconclusive: 70.8 µM [inhibitor, partial curve, poor fit]. For CC(C)(C)SCCNS(=O)(=O)c1ccc2ccccc2c1, the Potency was inconclusive: 89.1 µM [inhibitor, partial curve, poor fit]. With COc1cc2c(NC3CCN(C)CC3)nc(N3CCCN(C)CC3)nc2cc1OCCOCCN1CCCC1 the Potency was active: 20 µM. For CCOc1ccc2c(c1)C(C)=CC(C)(C)N2, the Potency was inconclusive: 35.5 µM [inhibitor, partial curve, poor fit]. With CCN(CC)Cc1cc(C(C)=O)ccc1OCC(C)C the Potency was inconclusive: 100 µM [inhibitor, partial curve, poor fit]. In the case of COc1cc(CCc2ccccc2)c(C(=O)O)c(O)c1C/C=C(/C)CCC=C(C)C, the Potency is reported as inconclusive: 50.1 µM [inhibitor, partial curve]. With Cc1cc(/C=C2\C(=N)N3N=C(c4ccco4)SC3=NC2=O)c(C)n1Cc1ccccc1 the Potency was inconclusive: 79.4 µM [inhibitor, partial curve, poor fit]. In the case of COc1cc2c(cc1OC)C(c1ccc(-c3cc(Cl)ccc3Cl)o1)=NCC2, the Potency is reported as inconclusive: 50.1 µM [inhibitor, partial curve, poor fit]. With O=C(N/N=C/c1ccc2c(c1)OCO2)c1ccc(Br)o1 the Potency was inconclusive: 22.4 µM [inhibitor, single point]. With O=C(O)CSc1cc(C(=O)c2ccccc2O)cn2c(=O)c3c(-c4ccccc4)csc3nc12 the Potency was inconclusive: 39.8 µM [inhibitor, partial curve]. For COc1ccc(/C=N/Nc2ncnc3sc4c(c23)CCCC4)cc1O, the Potency was inconclusive: 50.1 µM [inhibitor, partial curve]. For N#CCCN1CCN(C(=S)c2ccc(-c3cccc(Cl)c3)o2)CC1, the Potency was inconclusive: 79.4 µM [inhibitor, partial curve, poor fit]. In the case of O=C(CSc1nnc(-c2ccccc2F)n1C1CC1)Nc1ccc2[nH]c(=O)[nH]c2c1, the Potency is reported as inconclusive: 89.1 µM [inhibitor, partial curve, poor fit]. With Cc1cccc(C(=O)NC2(C(F)(F)F)N=C(c3ccccc3)N(C3CCCCC3)C2=O)c1 (centres undefined) the Potency was “inactive”. COc1ccc(CNc2nc3c(c(=O)n(Cc4ccc(Br)cc4)c(=O)n3C)n2C)cc1 was tested, and the Potency was inconclusive: 56.2 µM [inhibitor, partial curve, poor fit].

From PubChem BioAssay AID588795 (National Center for Advancing Translational Sciences (NCATS), 2011)
Note: nearly all actives have a fitted effect of over 65% in size.
Potency is the fitted concentration of half-maximal effect; tags give direction and shape of the fitted curve.
